Experimental data published in PubChem BioAssay AID485294 (National Center for Advancing Translational Sciences (NCATS), 2010).
Among all 370,000 compounds or so, about 150 (0.041%) were called active. The inconclusive results got no clear call from the source; some entries with a clear call stand among them for comparison. Calls come from the whole dose curve; as a rule, active = well fitted inhibition curve with a large enough effect; inconclusive = small, poorly fitted or top-dose-only effect; inactive = flat fitted curve, though single readings scatter. Potencies of inconclusive entries are left out as doubtful fits.

Each molecule was assayed against Beta-lactamase (Escherichia coli (strain K12)) (UniProt P00811) (assay: qHTS Inhibitors of AmpC Beta-Lactamase (assay with detergent)). Settings: AmpC hydrolysis of nitrocefin, absorbance 480 nm, 0.01% Triton; series mostly up to 114 µM.
Sequence of UniProt P00811 (P00811 whole entry, looked up): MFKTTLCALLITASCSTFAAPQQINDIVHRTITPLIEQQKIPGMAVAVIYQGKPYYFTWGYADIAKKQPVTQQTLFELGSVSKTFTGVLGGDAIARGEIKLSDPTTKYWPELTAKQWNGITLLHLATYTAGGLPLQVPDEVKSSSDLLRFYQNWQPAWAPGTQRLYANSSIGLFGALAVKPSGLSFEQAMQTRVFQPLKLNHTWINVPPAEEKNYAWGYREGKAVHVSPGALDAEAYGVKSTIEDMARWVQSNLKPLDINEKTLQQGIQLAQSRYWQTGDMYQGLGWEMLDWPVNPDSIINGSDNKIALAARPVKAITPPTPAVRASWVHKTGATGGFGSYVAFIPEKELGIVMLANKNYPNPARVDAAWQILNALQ
Summary of the method: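 AmpC (5.3 nM in the dispensed reagent) in 20 mM phosphate pH 7.0 with 0.01% (detergent screen) or 0.0001% Triton X-100 was preincubated with compounds for 15 min at room temperature. Nitrocefin was then added from an 800 uM solution, and hydrolysis was followed at 480 nm.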
Note: nearly all actives have a fitted effect of over 25% in size.
Potency is the fitted concentration of half-maximal effect; tags give direction and shape of the fitted curve.

Q: Which Potency does the source give for `COc1cccc(-c2[nH]nc3c2C(c2ccc(C)o2)C(C#N)=C(N)O3)c1` (configuration not stated) here?
A: inconclusive [inhibitor, full curve, poor fit]

Q: Which Potency does the source give for `Cc1ccc(-n2nnnc2CNC(=O)c2ccccc2F)cc1C` here?
A: inactive

Q: Which Potency does the source give for `CCOC(=O)CN1N=C(c2ccc(Cl)s2)CSC1=O` here?
A: inconclusive [inhibitor, full curve, poor fit]

Q: `COc1cccc(-c2nnc(-c3ccco3)o2)c1` was tested. Which Potency did it give?
A: inactive

Q: How did the Potency turn out when `O=C(NCc1ccccn1)c1ccccc1OCc1ccc(F)cc1` was run?
A: inconclusive [inhibitor, full curve, poor fit]

Q: How did the Potency turn out when `O=[N+]([O-])c1ccc(N2CCN(c3ccc(O)cc3)CC2)c(Cl)c1` was run?
A: inconclusive [inhibitor, full curve, poor fit]

Q: `O=C1C(C=NC2CC2)=C(O)c2ccccc21` was tested. Which Potency did it give?
A: inconclusive [inhibitor, partial curve]

Q: `O=C(NNc1nc(-c2ccccc2)c2cc(Br)ccc2n1)c1ccc(S(=O)(=O)N2CCOCC2)cc1` was tested. Which Potency did it give?
A: inactive

Q: For `COc1ccc(S(=O)(=O)CCC(=O)N2c3ccccc3CC2C)cc1` (configuration not stated), which Potency is on record?
A: inconclusive [inhibitor, full curve, poor fit]

Q: Which Potency does the source give for `CC(=O)N1[C@H](Cc2ccccc2)C=C[C@]1(C)C(=O)NCCc1c[nH]c2ccccc12` here?
A: inconclusive [inhibitor, full curve, poor fit]

Q: Which Potency does the source give for `Cc1onc(-c2ccccc2)c1C(=O)N(Cc1ccccc1)C(C)C` here?
A: inconclusive [inhibitor, single point]

Q: `CCOC(=O)c1c(C)c(C(=O)Nc2ccc(N(C)C)cc2)c(C)n1CC` was tested. Which Potency did it give?
A: inactive

Q: Which Potency does the source give for `O=C(N/N=C/c1ccc(OC(=O)c2ccc3c(c2)OCO3)cc1)c1cncc(Br)c1` here?
A: inactive

Q: `N#C/C(=C\c1c(N2CCCCC2)nc2ccccn2c1=O)S(=O)(=O)c1ccccc1` was tested. Which Potency did it give?
A: inactive

Q: `COc1cccc(NC(=O)C2C3C=CC(O3)C2C(=O)O)c1` (configuration not stated) was tested. Which Potency did it give?
A: inconclusive [inhibitor, partial curve, poor fit]

Q: How did the Potency turn out when `COc1ccc(-c2cn3c(C)c(C(=O)NCCN4CCOCC4)sc3n2)cc1` was run?
A: inactive

Q: For `CC(=N\NC(=O)c1ccc([N+](=O)[O-])cc1)/C(=N/O)C(=O)Nc1ccccc1`, which Potency is on record?
A: inconclusive [inhibitor, full curve, poor fit]

Q: `CCN(c1ccccc1)S(=O)(=O)c1ccc(OC)c(NC(=O)Cc2ccc(F)cc2)c1` was tested. Which Potency did it give?
A: inactive

Q: With `C=C(C)[C@@H]1CCC2(C(=O)O)CC[C@]3(C)[C@H](CC[C@@H]4[C@@]5(C)CCC(=O)C(C)(C)[C@@H]5CC[C@]43C)[C@@H]12` (some centres not stated) as the molecule, how does the Potency read?
A: inactive

Q: For `Cc1ccccc1[C@@]1(C)ON(c2ccccc2C(F)(F)F)C1=O`, which Potency is on record?
A: inactive

Q: `CC(C)c1ccc(-c2nc3ccccc3s2)cc1` was tested. Which Potency did it give?
A: inconclusive [inhibitor, partial curve, poor fit]

Q: For `C/C(=N\NC(=O)c1cccc(N/N=C(\C)c2ccc([N+](=O)[O-])cc2)c1)c1ccc([N+](=O)[O-])cc1`, which Potency is on record?
A: inactive

Q: With `CCc1ccccc1NC(=S)NN` as the molecule, how does the Potency read?
A: inactive

Q: With `COC(=O)C1=C(N)OC(C)=C(C(C)=O)C12C(=O)N(C)c1ccccc12` (configuration not stated) as the molecule, how does the Potency read?
A: inconclusive [inhibitor, full curve, poor fit]

Q: With `N#C/C(=N\Nc1ccccc1)C(=N)N1CCCCC1` as the molecule, how does the Potency read?
A: inactive

Q: For `COc1cc(SC)ccc1C(=O)Nc1nc2ccccc2[nH]1`, which Potency is on record?
A: inconclusive [inhibitor, full curve]

Q: For `Cc1ccc(-n2nnc3c(=O)n(CC(=O)N4CCCC4)cnc32)cc1`, which Potency is on record?
A: inactive

Q: Which Potency does the source give for `COc1ccc(OC)c(C2=NS(=O)(=O)N(C)C(C(=O)NCc3ccco3)=C2)c1` here?
A: inconclusive [inhibitor, full curve, poor fit]

Q: For `Cc1cccc2cc(COC(=O)C3CCCCC3)c(=O)[nH]c12`, which Potency is on record?
A: inconclusive [inhibitor, full curve]

Q: How did the Potency turn out when `CC(=O)Nc1cccc(Oc2ccc3c(c2)C(=O)NC3=O)c1` was run?
A: inconclusive [inhibitor, full curve, poor fit]

Q: With `COc1ccccc1N1C(=O)NC(=O)/C(=C/c2ccc3c(c2)Cc2ccccc2-3)C1=O` as the molecule, how does the Potency read?
A: inconclusive [inhibitor, single point]

Q: `CCS(=O)(=O)c1ccccc1C(=O)NC1CCCc2ccccc21` (configuration not stated) was tested. Which Potency did it give?
A: inconclusive [inhibitor, partial curve, poor fit]

Q: How did the Potency turn out when `CCc1ccc(NC(=O)c2cnc3scc(C)n3c2=O)cc1` was run?
A: inconclusive [inhibitor, partial curve, poor fit]

Q: How did the Potency turn out when `O=C(CSc1ccc(Cl)cc1)Nc1ncccn1` was run?
A: inconclusive [inhibitor, full curve]

Q: With `C/C=C/C=C/C(=O)OC(C)C(=O)Nc1cc([N+](=O)[O-])ccc1OC` (configuration not stated) as the molecule, how does the Potency read?
A: inactive

Q: With `COC(=O)C1=C(C)NC(=O)NC1c1ccccc1` (configuration not stated) as the molecule, how does the Potency read?
A: inconclusive [inhibitor, full curve, poor fit]

Q: `Cc1cc(-c2nc3ccccc3[nH]2)ccc1N` was tested. Which Potency did it give?
A: inactive

Q: With `Cc1cccc(N2CCN(S(=O)(=O)c3ccc4c(c3)CC(C)N4C(=O)C3CC3)CC2)c1C` (configuration not stated) as the molecule, how does the Potency read?
A: inactive

Q: `CCCCCC(=O)NC(NC(=S)N1CCOCC1)C(Cl)(Cl)Cl` (configuration not stated) was tested. Which Potency did it give?
A: inactive

Q: Which Potency does the source give for `CC1=C(C(=O)Nc2ccc(C)cc2C)C(c2cccn2C)n2ncnc2N1` (configuration not stated) here?
A: inactive

Q: Which Potency does the source give for `COc1ccc(-c2nnc(SCc3csc(N)n3)n2C)cc1` here?
A: inconclusive [inhibitor, full curve, poor fit]

Q: With `COc1ccc(CCNC(=O)CCCCCn2c(=O)[nH]c3cc(OC)c(OC)cc3c2=O)cc1OC` as the molecule, how does the Potency read?
A: inactive

Q: Which Potency does the source give for `CCCn1c(=O)c2ccccc2n2c(SCC(=O)c3ccc(CC)cc3)nnc12` here?
A: inconclusive [inhibitor, full curve, poor fit]

Q: With `COc1ccc(-c2csc(NC(=S)NC(=O)c3cc4ccccc4o3)n2)cc1Br` as the molecule, how does the Potency read?
A: inactive

Q: Which Potency does the source give for `Fc1ccccc1CNc1ncnc2sccc12` here?
A: inactive

Q: With `Nn1c(SCc2nc3ccccc3[nH]2)nnc1-c1ccccc1` as the molecule, how does the Potency read?
A: inconclusive [inhibitor, single point]

Q: For `COc1ccc(CC(=O)NCc2ccc3c(c2)OCO3)cc1`, which Potency is on record?
A: inactive

Q: With `CCOC(=O)C1CCCN(S(=O)(=O)c2ccc3c(c2)CC(C)N3C(=O)C2CC2)C1` (configuration not stated) as the molecule, how does the Potency read?
A: inactive

Q: Which Potency does the source give for `O=C(CSc1nnc2ccc(-c3ccco3)nn12)Nc1ccccc1F` here?
A: inconclusive [inhibitor, full curve, poor fit]

Q: Which Potency does the source give for `CCSc1nnc(CSc2ncccn2)n1C` here?
A: inconclusive [inhibitor, full curve, poor fit]

Q: Which Potency does the source give for `O=C(NCc1ccccc1)C1CCN(C(=O)c2cnn(-c3ccccc3)c2-n2cccc2)CC1` here?
A: inactive

Q: Which Potency does the source give for `COCc1cc(C)nc(OCC(=O)N/N=C/c2ccc(-c3cc([N+](=O)[O-])ccc3C)o2)c1C#N` here?
A: inactive

Q: `CCOC(=O)C(C(=O)N1CCOCC1)C1CCCCC1` (configuration not stated) was tested. Which Potency did it give?
A: inconclusive [inhibitor, full curve, poor fit]

Q: `CCOc1ncccc1C(=O)OCC(=O)c1ccc[nH]1` was tested. Which Potency did it give?
A: inconclusive [inhibitor, full curve, poor fit]

Q: For `COc1ccc(C(=O)COC(=O)CCS(=O)(=O)c2ccc(C)cc2)c(OC)c1`, which Potency is on record?
A: inconclusive [inhibitor, full curve, poor fit]

Q: For `COc1ccc(CN(C(=O)c2oc3ccc(F)cc3c2C)C2CCS(=O)(=O)C2)cc1` (configuration not stated), which Potency is on record?
A: inconclusive [inhibitor, full curve, poor fit]

Q: With `COc1c(C(=O)Nc2ccc(Cc3ccncc3)cc2)ccc2ccccc12` as the molecule, how does the Potency read?
A: inconclusive [inhibitor, full curve, poor fit]

Q: `CC(=O)N/C(=C\c1ccc(F)cc1)C(=O)NC(C(=O)O)C(C)C` (configuration not stated) was tested. Which Potency did it give?
A: inconclusive [inhibitor, single point]

Q: For `CC(C)CNC(=O)c1cccc(NC(=O)c2ccc3c(c2)C(=O)N(C)C3=O)c1`, which Potency is on record?
A: inconclusive [inhibitor, partial curve, poor fit]

Q: Which Potency does the source give for `CC(Cc1cccnc1)NC(=O)c1cc(COc2c(F)cccc2F)on1` (configuration not stated) here?
A: inconclusive [inhibitor, partial curve, poor fit]

Q: `CCN(c1ccc(OC)cc1)S(=O)(=O)c1nnc(NC(=O)c2ccccc2C)s1` was tested. Which Potency did it give?
A: inactive

Q: How did the Potency turn out when `CC(=O)NCCc1nc2ccccc2[nH]1` was run?
A: inconclusive [inhibitor, full curve, poor fit]

Q: With `COc1ccc(CNC(=O)C(C)N(C)Cc2cccc(F)c2)cc1` (configuration not stated) as the molecule, how does the Potency read?
A: inconclusive [inhibitor, full curve, poor fit]

Q: Which Potency does the source give for `O=S(=O)(NCCc1cn2ccccc2n1)c1ccc2c(c1)OCCO2` here?
A: inconclusive [inhibitor, full curve, poor fit]

Q: With `Cc1ccc(-c2csc(SCC(=O)Nc3cc(C)on3)n2)cc1` as the molecule, how does the Potency read?
A: inconclusive [inhibitor, single point]

Q: Which Potency does the source give for `O=C(O)COn1c(-c2ccc(Cl)cc2)nc2ccc(Cl)cc21` here?
A: inactive

Q: `COCCN(CC1CCCN(C2Cc3ccccc3C2)C1)C(=O)CSC` (configuration not stated) was tested. Which Potency did it give?
A: inactive

Q: For `CC12CCC(C/C1=N/OC(=O)c1cccc([N+](=O)[O-])c1)C2(C)C` (configuration not stated), which Potency is on record?
A: inactive

Q: For `Cc1cc(C)cc(-n2nnc(-c3nsc(NC(=O)c4ccccc4Cl)n3)c2C)c1`, which Potency is on record?
A: inactive

Q: How did the Potency turn out when `Cc1ccccc1NC(=O)CC(O)(C(F)(F)F)C(F)(F)F` was run?
A: inconclusive [inhibitor, full curve, poor fit]

Q: With `O=c1c2cc(NC(=S)N3CCCC3)ccc2nc2n1CCCCC2` as the molecule, how does the Potency read?
A: inactive

Q: Which Potency does the source give for `CC1(C(=O)Nc2cccc(S(=O)(=O)N3CCOCC3)c2)Cc2ccccc2C(=O)O1` (configuration not stated) here?
A: inconclusive [inhibitor, partial curve, poor fit]
